± gives the standard deviation of the averaged measurements. Laboratory Escherichia coli strains with one amino-acid change in an essential protein, pooled on minimal glucose agar with carbenicillin or gentamicin at twice the control MIC (plus kanamycin and chloramphenicol for the plasmids), 48 h. Fold change of barcode share against drug-free plates; higher = less susceptible. Active = above 20 in both replicates (the paper's putatively resistant). '<' = one read or none on drug, '>' = one read or none on a drug-free plate. Shares are relative, so most strains fall below 1 when a few take over. Listed are strains with at least 15 reads on both drug-free plates, and hits; most hits rest on fewer reference reads. Replicate rank correlation about 0.5. Edits are read from barcodes.
B1: metL L432D (protein)
chain: MSVIAQAGAKGRQLHKFGGSSLADVKCYLRVAGIMAEYSQPDDMMVVSAAGSTTNQLINWLKLSQTDRLSAHQVQQTLRRYQCDLISGLLPAEEADSLISAFVSDLERLAALLDSGINDAVYAEVVGHGEVWSARLMSAVLNQQGLPAAWLDAREFLRAERAAQPQVDEGLSYPLLQQLLVQHPGKRLVVTGFISRNNAGETVLLGRNGSDYSATQIGALAGVSRVTIWSDVAGVYSADPRKVKDACLLPLLRLDEASELARLAAPVLHARTLQPVSGSEIDLQLRCSYTPDQGSTRIERVLASGTGARIVTSHDDVCLIEFQVPASQDFKLAHKEIDQILKRAQVRPLAVGVHNDRQLLQFCYTSEVADSALKILDEAGLPGELRLRQGLALVAMVGAGVTRNPLHCHRFWQQLKGQPVEFTWQSDDGISDVAVLRTGPTESLIQGLHQSVFRAEKRIGLVLFGKGNIGSRWLELFAREQSTLSARTGFEFVLAGVVDSRRSLLSYDGLDASRALAFFNDEAVEQDEESLFLWMRAHPYDDLVVLDVTASQQLADQYLDFASHGFHVISANKLAGASDSNKYRQIHDAFEKTGRHWLYNATVGAGLPINHTVRDLIDSGDTILSISGIFSGTLSWLFLQFDGSVPFTELVDQAWQQGLTEPDPRDDLSGKDVMRKLVILAREAGYNIEPDQVRVESLVPAHCEGGSIDHFFENGDELNEQMVQRLEAAREMGLVLRYVARFDANGKARVGVEAVREDHPLASLLPCDNVFAIESRWYRDNPLVIRGPGAGRDVTAGAIQSDINRLAQLL
B2: metL V462Q (protein)
chain: MSVIAQAGAKGRQLHKFGGSSLADVKCYLRVAGIMAEYSQPDDMMVVSAAGSTTNQLINWLKLSQTDRLSAHQVQQTLRRYQCDLISGLLPAEEADSLISAFVSDLERLAALLDSGINDAVYAEVVGHGEVWSARLMSAVLNQQGLPAAWLDAREFLRAERAAQPQVDEGLSYPLLQQLLVQHPGKRLVVTGFISRNNAGETVLLGRNGSDYSATQIGALAGVSRVTIWSDVAGVYSADPRKVKDACLLPLLRLDEASELARLAAPVLHARTLQPVSGSEIDLQLRCSYTPDQGSTRIERVLASGTGARIVTSHDDVCLIEFQVPASQDFKLAHKEIDQILKRAQVRPLAVGVHNDRQLLQFCYTSEVADSALKILDEAGLPGELRLRQGLALVAMVGAGVTRNPLHCHRFWQQLKGQPVEFTWQSDDGISLVAVLRTGPTESLIQGLHQSVFRAEKRIGLQLFGKGNIGSRWLELFAREQSTLSARTGFEFVLAGVVDSRRSLLSYDGLDASRALAFFNDEAVEQDEESLFLWMRAHPYDDLVVLDVTASQQLADQYLDFASHGFHVISANKLAGASDSNKYRQIHDAFEKTGRHWLYNATVGAGLPINHTVRDLIDSGDTILSISGIFSGTLSWLFLQFDGSVPFTELVDQAWQQGLTEPDPRDDLSGKDVMRKLVILAREAGYNIEPDQVRVESLVPAHCEGGSIDHFFENGDELNEQMVQRLEAAREMGLVLRYVARFDANGKARVGVEAVREDHPLASLLPCDNVFAIESRWYRDNPLVIRGPGAGRDVTAGAIQSDINRLAQLL
B3: metL V462A (protein)
chain: MSVIAQAGAKGRQLHKFGGSSLADVKCYLRVAGIMAEYSQPDDMMVVSAAGSTTNQLINWLKLSQTDRLSAHQVQQTLRRYQCDLISGLLPAEEADSLISAFVSDLERLAALLDSGINDAVYAEVVGHGEVWSARLMSAVLNQQGLPAAWLDAREFLRAERAAQPQVDEGLSYPLLQQLLVQHPGKRLVVTGFISRNNAGETVLLGRNGSDYSATQIGALAGVSRVTIWSDVAGVYSADPRKVKDACLLPLLRLDEASELARLAAPVLHARTLQPVSGSEIDLQLRCSYTPDQGSTRIERVLASGTGARIVTSHDDVCLIEFQVPASQDFKLAHKEIDQILKRAQVRPLAVGVHNDRQLLQFCYTSEVADSALKILDEAGLPGELRLRQGLALVAMVGAGVTRNPLHCHRFWQQLKGQPVEFTWQSDDGISLVAVLRTGPTESLIQGLHQSVFRAEKRIGLALFGKGNIGSRWLELFAREQSTLSARTGFEFVLAGVVDSRRSLLSYDGLDASRALAFFNDEAVEQDEESLFLWMRAHPYDDLVVLDVTASQQLADQYLDFASHGFHVISANKLAGASDSNKYRQIHDAFEKTGRHWLYNATVGAGLPINHTVRDLIDSGDTILSISGIFSGTLSWLFLQFDGSVPFTELVDQAWQQGLTEPDPRDDLSGKDVMRKLVILAREAGYNIEPDQVRVESLVPAHCEGGSIDHFFENGDELNEQMVQRLEAAREMGLVLRYVARFDANGKARVGVEAVREDHPLASLLPCDNVFAIESRWYRDNPLVIRGPGAGRDVTAGAIQSDINRLAQLL
B4: metL L432P (protein)
chain: MSVIAQAGAKGRQLHKFGGSSLADVKCYLRVAGIMAEYSQPDDMMVVSAAGSTTNQLINWLKLSQTDRLSAHQVQQTLRRYQCDLISGLLPAEEADSLISAFVSDLERLAALLDSGINDAVYAEVVGHGEVWSARLMSAVLNQQGLPAAWLDAREFLRAERAAQPQVDEGLSYPLLQQLLVQHPGKRLVVTGFISRNNAGETVLLGRNGSDYSATQIGALAGVSRVTIWSDVAGVYSADPRKVKDACLLPLLRLDEASELARLAAPVLHARTLQPVSGSEIDLQLRCSYTPDQGSTRIERVLASGTGARIVTSHDDVCLIEFQVPASQDFKLAHKEIDQILKRAQVRPLAVGVHNDRQLLQFCYTSEVADSALKILDEAGLPGELRLRQGLALVAMVGAGVTRNPLHCHRFWQQLKGQPVEFTWQSDDGISPVAVLRTGPTESLIQGLHQSVFRAEKRIGLVLFGKGNIGSRWLELFAREQSTLSARTGFEFVLAGVVDSRRSLLSYDGLDASRALAFFNDEAVEQDEESLFLWMRAHPYDDLVVLDVTASQQLADQYLDFASHGFHVISANKLAGASDSNKYRQIHDAFEKTGRHWLYNATVGAGLPINHTVRDLIDSGDTILSISGIFSGTLSWLFLQFDGSVPFTELVDQAWQQGLTEPDPRDDLSGKDVMRKLVILAREAGYNIEPDQVRVESLVPAHCEGGSIDHFFENGDELNEQMVQRLEAAREMGLVLRYVARFDANGKARVGVEAVREDHPLASLLPCDNVFAIESRWYRDNPLVIRGPGAGRDVTAGAIQSDINRLAQLL
B5: metL V462D (protein)
chain: MSVIAQAGAKGRQLHKFGGSSLADVKCYLRVAGIMAEYSQPDDMMVVSAAGSTTNQLINWLKLSQTDRLSAHQVQQTLRRYQCDLISGLLPAEEADSLISAFVSDLERLAALLDSGINDAVYAEVVGHGEVWSARLMSAVLNQQGLPAAWLDAREFLRAERAAQPQVDEGLSYPLLQQLLVQHPGKRLVVTGFISRNNAGETVLLGRNGSDYSATQIGALAGVSRVTIWSDVAGVYSADPRKVKDACLLPLLRLDEASELARLAAPVLHARTLQPVSGSEIDLQLRCSYTPDQGSTRIERVLASGTGARIVTSHDDVCLIEFQVPASQDFKLAHKEIDQILKRAQVRPLAVGVHNDRQLLQFCYTSEVADSALKILDEAGLPGELRLRQGLALVAMVGAGVTRNPLHCHRFWQQLKGQPVEFTWQSDDGISLVAVLRTGPTESLIQGLHQSVFRAEKRIGLDLFGKGNIGSRWLELFAREQSTLSARTGFEFVLAGVVDSRRSLLSYDGLDASRALAFFNDEAVEQDEESLFLWMRAHPYDDLVVLDVTASQQLADQYLDFASHGFHVISANKLAGASDSNKYRQIHDAFEKTGRHWLYNATVGAGLPINHTVRDLIDSGDTILSISGIFSGTLSWLFLQFDGSVPFTELVDQAWQQGLTEPDPRDDLSGKDVMRKLVILAREAGYNIEPDQVRVESLVPAHCEGGSIDHFFENGDELNEQMVQRLEAAREMGLVLRYVARFDANGKARVGVEAVREDHPLASLLPCDNVFAIESRWYRDNPLVIRGPGAGRDVTAGAIQSDINRLAQLL
B6: metL V462P (protein)
chain: MSVIAQAGAKGRQLHKFGGSSLADVKCYLRVAGIMAEYSQPDDMMVVSAAGSTTNQLINWLKLSQTDRLSAHQVQQTLRRYQCDLISGLLPAEEADSLISAFVSDLERLAALLDSGINDAVYAEVVGHGEVWSARLMSAVLNQQGLPAAWLDAREFLRAERAAQPQVDEGLSYPLLQQLLVQHPGKRLVVTGFISRNNAGETVLLGRNGSDYSATQIGALAGVSRVTIWSDVAGVYSADPRKVKDACLLPLLRLDEASELARLAAPVLHARTLQPVSGSEIDLQLRCSYTPDQGSTRIERVLASGTGARIVTSHDDVCLIEFQVPASQDFKLAHKEIDQILKRAQVRPLAVGVHNDRQLLQFCYTSEVADSALKILDEAGLPGELRLRQGLALVAMVGAGVTRNPLHCHRFWQQLKGQPVEFTWQSDDGISLVAVLRTGPTESLIQGLHQSVFRAEKRIGLPLFGKGNIGSRWLELFAREQSTLSARTGFEFVLAGVVDSRRSLLSYDGLDASRALAFFNDEAVEQDEESLFLWMRAHPYDDLVVLDVTASQQLADQYLDFASHGFHVISANKLAGASDSNKYRQIHDAFEKTGRHWLYNATVGAGLPINHTVRDLIDSGDTILSISGIFSGTLSWLFLQFDGSVPFTELVDQAWQQGLTEPDPRDDLSGKDVMRKLVILAREAGYNIEPDQVRVESLVPAHCEGGSIDHFFENGDELNEQMVQRLEAAREMGLVLRYVARFDANGKARVGVEAVREDHPLASLLPCDNVFAIESRWYRDNPLVIRGPGAGRDVTAGAIQSDINRLAQLL
B7: metL V462W (protein)
chain: MSVIAQAGAKGRQLHKFGGSSLADVKCYLRVAGIMAEYSQPDDMMVVSAAGSTTNQLINWLKLSQTDRLSAHQVQQTLRRYQCDLISGLLPAEEADSLISAFVSDLERLAALLDSGINDAVYAEVVGHGEVWSARLMSAVLNQQGLPAAWLDAREFLRAERAAQPQVDEGLSYPLLQQLLVQHPGKRLVVTGFISRNNAGETVLLGRNGSDYSATQIGALAGVSRVTIWSDVAGVYSADPRKVKDACLLPLLRLDEASELARLAAPVLHARTLQPVSGSEIDLQLRCSYTPDQGSTRIERVLASGTGARIVTSHDDVCLIEFQVPASQDFKLAHKEIDQILKRAQVRPLAVGVHNDRQLLQFCYTSEVADSALKILDEAGLPGELRLRQGLALVAMVGAGVTRNPLHCHRFWQQLKGQPVEFTWQSDDGISLVAVLRTGPTESLIQGLHQSVFRAEKRIGLWLFGKGNIGSRWLELFAREQSTLSARTGFEFVLAGVVDSRRSLLSYDGLDASRALAFFNDEAVEQDEESLFLWMRAHPYDDLVVLDVTASQQLADQYLDFASHGFHVISANKLAGASDSNKYRQIHDAFEKTGRHWLYNATVGAGLPINHTVRDLIDSGDTILSISGIFSGTLSWLFLQFDGSVPFTELVDQAWQQGLTEPDPRDDLSGKDVMRKLVILAREAGYNIEPDQVRVESLVPAHCEGGSIDHFFENGDELNEQMVQRLEAAREMGLVLRYVARFDANGKARVGVEAVREDHPLASLLPCDNVFAIESRWYRDNPLVIRGPGAGRDVTAGAIQSDINRLAQLL

molecular target: Escherichia coli (laboratory strain); assay: barcode share on antibiotic plates over drug-free plates; higher = less susceptible; conditions: antibiotic: carbenicillin; 2× MIC (3.1 µg/mL)
Description: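 A pool of E. coli strains, each edited to carry one amino-acid change in an essential protein, was grown for 48 h on minimal glucose agar with or without antibiotic; strain barcodes were sequenced; mean of two replicates.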

Protein | fold change of barcode share
B1 | 0.289 ± 0.012
B2 | 0.633 ± 0.18
B3 | 0.406 ± 0.019
B4 | 0.29 ± 0.06
B5 | 0.708 ± 0.2
B6 | 0.615 ± 0.11
B7 | 0.535 ± 0.0089

same assay, conditions: antibiotic: gentamicin; 2× MIC (MIC 0.45 µg/mL)

Protein | fold change of barcode share
B1 | 0.00889 ± 0.0069
B2 | 0.0106 ± 0.002
B3 | 0.00802 ± 0.0036
B4 | 0.029 ± 0.029
B5 | 0.0117 ± 0.0094
B6 | 0.0079 ± 0.00097
B7 | 0.00855 ± 0.00013

— the supplement of paper PMC11876631
